Out of some 48,000 compounds screened, about 450 (0.94%) were called active. About 19% were inconclusive and are not listed. Calls follow the shape of the dose curve; as a rule, active = well fitted inhibition curve with a large enough effect; inconclusive = small, poorly fitted or top-dose-only effect; inactive = no such curve, though single readings can be large or run the other way. This is one part of the list.
Assay: Primary qHTS for Identification of Small Molecule Inhibitors of Huntingtin Promoter Activity; also: nearly all actives have a fitted effect of over 50% in size
Conditions: HEK293 HTT promoter firefly luciferase reporter (activity 0% = vehicle and -100% = no light), 24 h; series mostly up to 57.5 µM; activity change, negative = inhibition: at the top concentration
How it was run: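 HEK293 luciferase promoter-reporter cells (2,500/well) plated 24 h, then compounds added at up to 57.5 uM final for 24 h at 37 °C. Firefly luminescence by Dual-Glo, normalized to vehicle (0%) and zero RLU (-100%).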

Activity change, negative = inhibition, inactive:
CC(C)OC(=O)c1c(NC(=O)C2c3ccccc3Oc3ccccc32)sc2c1CCCC2 -14.5%, COc1ccccc1-c1noc(CCC(=O)Nc2ccc(C)cc2C)n1 -11.4%, Cc1ccc(NC(=O)C2CCCN(S(=O)(=O)c3cn(C(C)C)cn3)C2)c(C)c1 (configuration not stated) -17%, CCc1ccc2oc(C(=O)Nc3cc(C)ccc3C)cc(=O)c2c1 5.73% [at 11.5 µM], CC(C)c1nn2c(=O)cc(COC(=O)c3ccccc3NC(=O)C3CCCCC3)nc2s1 -19%, CC1Cc2ccccc2N1C(=O)CSc1nnc(-c2ccccc2Cl)o1 (configuration not stated) -1.19%, CN(C)c1ccc(CNC(=O)c2ccccc2NC(=O)c2nsc3ccccc23)cc1 21.1%, CCCc1cc(=O)n2[nH]c(NCc3ccc(CC)cc3)nc2n1 -21.1%, O=C1SC(Nc2ccc(Cl)cc2)C(=O)N1Cc1ccccc1 (configuration not stated) -16.8%, Cc1ccc2oc(C(=O)Nc3ccc(S(=O)(=O)Nc4onc(C)c4C)cc3)cc(=O)c2c1 -6.22% [at 11.5 µM], O=C(CSc1ncc(S(=O)(=O)c2ccc(Cl)cc2)c(=O)[nH]1)Nc1ccc2c(c1)OCCO2 -3.39%, COc1cccc(C(=O)NCC(=O)OCc2cc(=O)n3nc(C)sc3n2)c1 10.9%, CCCCNC(=O)C1=CC(c2ccc3c(c2)OCO3)=NS(=O)(=O)N1C -11.9%, CCCCCC(N)=O 15.5%, C[C@H]1C[C@H]2[C@@H]3CCC4=CC(=O)C=C[C@]4(C)[C@@]3(Cl)[C@@H](O)C[C@]2(C)[C@@]1(O)C(=O)CO -9.39%, CCC(Sc1nc2ccncc2[nH]1)C(=O)Nc1ccc(F)cc1 (configuration not stated) -34.3%, COc1cccc(-n2c(=O)c3sc4ccccc4c3n(CC(=O)Nc3ccccc3OC)c2=O)c1 -18.4%, Cc1ccc(-n2nc(CO)c(C(=O)NCCc3ccccc3)n2)cc1 -8.26%, O=S(=O)(c1ccccc1)c1nnn2c1nc(Nc1ccccc1)c1cc(Cl)ccc12 -15.2%, Cc1ccc(Cl)cc1N1CCN(C(=O)Cn2ncc3c([nH]c4ccccc43)c2=O)CC1 7.6%, Cc1cc(C)cc(NC(=O)C(NS(=O)(=O)c2cccc3nsnc23)c2ccccc2)c1 (configuration not stated) -29.7%, O=C(CSc1nnc(-c2ccc(Cl)cc2)o1)N1CCc2ccccc21 2.93%, Cc1ccc(Cn2cnc3c(oc4ccccc43)c2=O)cc1 25.4%, COc1ccc(CCNC(=O)CCc2cn(Cc3ccc(C)cc3)c3ccccc23)cc1OC -27.2%, CCCCn1c2ccccc2c2nnc(SCC(=O)Nc3ccc(NC(C)=O)cc3)nc21 -31.5%, COc1cc2nc(N3CCN(C(=O)C4CCCO4)CC3)nc(N)c2cc1OC (configuration not stated), O=C(Nc1onc2c1CCCC2)c1ccc(Cl)cc1 61.8%, CCc1nc2nc(C)cc(Nc3ccc(Br)cc3F)n2n1 -15.4%, Cc1ccccc1NC(=O)c1c2c(nc3ccccc13)C(=O)N(C1CCCCC1)C2 -4.77%, COc1ccccc1-c1cc(C(F)(F)F)nc(S(=O)(=O)CCCC(=O)Nc2cc(C)ccc2O)n1 33.7%, Cc1ccc2c(=O)c(C(=O)c3ccc(F)cc3)cn(CC(=O)NC3CCCCC3)c2n1 6.09%, CC(=O)Nc1ccc(S(=O)(=O)Nc2ccc(-c3cn4c(C)csc4n3)cc2)cc1 -35.4%, COc1ccc2c(Sc3ccccc3)c(C(=O)NCc3ccc(OC(C)C)cc3)[nH]c2c1 -9.57%, CN1CCN(c2cccc(Nc3nc4c(-c5ccc(S(C)(=O)=O)cc5)cccn4n3)c2)CC1 2.12%, COc1ccc(-c2nc3ccc(NS(=O)(=O)c4ccccc4)cc3o2)cc1 -5.45%, CCOc1ccc(-n2c(SCC(=O)NCc3ccco3)nc3c([nH]c4ccccc43)c2=O)cc1 -27%, Cc1ccc(-n2c3nc(=O)[nH]c(=O)c-3cc3c(Cl)cccc32)cc1 3.43%, Cc1ccc(NC(=O)c2sc(-n3nc(C)c(Cc4ccc(Cl)cc4)c3C)nc2C)cc1 5.61%, Cc1ccc(Cn2ccnc2SCC(=O)Nc2ccc3c(c2)OCO3)cc1 -8.78%, CCN(Cc1ccccc1)C(=O)Cn1c(=O)n(-c2ccc(OC)cc2OC)c(=O)c2c(C)c(C)sc21 -2.61%, CCOc1ccc(NC(=O)c2c(NC(=O)Cc3ccccc3)sc3c2CCCC3)cc1 -16.1%, COc1ccc(Cl)cc1NC(=O)Cn1c(=O)n(Cc2ccco2)c(=O)c2ccc(C(=O)NC3CCCC3)cc21 -13.2%, CCOc1ccc(CNC(=O)c2ccc(-c3nc(CSc4ccc(C)cc4)c(C)o3)cc2)cc1 -25.2%, Cc1c(CC(=O)N2CCCCC2)c(=O)oc2c(C)c3occ(C(C)(C)C)c3cc12 -6.12%, CCCCOc1ccc(C(C)NC(=O)c2cccc(Nc3nc4ccccc4n4nnnc34)c2)cc1 (configuration not stated) -4.22%, CCOc1ccc(CCNC(=O)CSc2n[nH]c(-c3ccccc3)n2)cc1OCC 1.48%, Cc1ccc(CN2CCSc3ccc(C(=O)NCCc4ccccc4)cc32)cc1 14.1%, COc1ccc(Cl)cc1NC(=O)C1CCN(c2nnc(C)c3c(C)n(-c4ccccc4)nc23)CC1 -10.3%, CN(C)C=NC(=O)c1cc2c(n(-c3ccccc3)c1=O)CC(C)(C)CC2=O -17.5%, Oc1ccccc1C=NCc1ccccc1 -0.469%, COc1cccc(CSc2nc3n(n2)C(c2cccc(F)c2)C(C(=O)Nc2ccccc2C)=C(C)N3)c1 (configuration not stated) 6.13%, CN(C)c1cc2c(cc1NS(=O)(=O)c1ccccc1)n(C)c(=O)n2C -9.51%, COc1ccc(CN(C(=O)Nc2cccc(Cl)c2)c2ccccn2)cc1OC -8.26%, COCCNC(=O)CCC(=O)N1Cc2cccc(OC)c2Oc2ncccc21 -12.7%, COc1ccc(CNC(=O)CCCN2C(=O)CSc3c2c(C)nn3-c2ccccc2)c(OC)c1 -23.1%, COc1ccc(Cl)cc1NC(=O)CCS(=O)(=O)c1cccc2nonc12 -16.1%, Cc1ccc(NC(=O)C(=O)NCC(c2cccnc2)N2CCOCC2)cc1Cl (configuration not stated) -30.8%, CCc1ccc(NC(=O)Cn2ccn(Cc3ccccc3OC)c(=O)c2=O)cc1 -30.9%, Cc1ccc(-n2nc(C)c3c(C)cc(=O)n(CC(=O)N4CCCc5ccccc54)c32)cc1 0%, CCn1cc(S(=O)(=O)c2cccc(Cl)c2)c(=O)c2cc(F)c(N3CCC(C)CC3)cc21 -10.4%, COc1cccc(-c2ccc3c(N)c(C(=O)c4ccc(Br)cc4)sc3n2)c1 -25.5%, O=C(Cc1ccc(Cl)cc1)Nc1nnc2n1CCS2 2.88%, COc1ccc(C)cc1NC(=O)CCc1c(C)nn(-c2ccc(N3CCOCC3)nn2)c1C -15.5%, O=C(COCc1cc(-c2cccs2)on1)NCc1ccc(Cl)cc1 -29.1%, COc1cccc(CNC(=O)Cc2csc3ccccc23)c1OC 16.4%, Cc1ccc(C2=Nc3ccc(Cl)cc3OC2)cc1 17.8%, COc1ccc(NC(=O)C(=O)NCC2(c3ccc(OC)c(OC)c3)CCCC2)cc1 -19.8%, COc1ccc(NC(=O)CCCSc2nc(-c3ccco3)cc(C(F)(F)F)n2)c(OC)c1 -25.8%, CCOc1ccc(N(CC)C(=O)C2CCN(S(=O)(=O)c3cccc4nonc34)CC2)cc1 2.74%, COc1cc(NC(=O)Cn2nnc(-c3ccc(C(F)(F)F)cc3)n2)c(C(=O)O)cc1OC -2.27%, COc1ccc(CCC(=O)NC2CC(=O)N(c3cccc(F)c3)C2)cc1 (configuration not stated) 6.95%, CCC(=O)n1nc(-c2cccnc2)nc1NCc1ccc(F)cc1 -15.5%, COc1ccc(NC(=O)c2c(NC(=O)COc3ccccc3)sc3c2CCC(C)C3)cc1 (configuration not stated) 23%, O=C(NCCC1=CCCCC1)c1ccc2c(=O)n3nc(Nc4ccccc4)sc3nc2c1 -15.2%, Cc1ccc(NC(=O)CSc2nnc3[nH]c(=O)cc(-c4ccccc4)n23)cc1Cl 55.4%, COCCCNC(=O)c1cn(CCOC)c(=O)c2c1c1ccccc1n2C -14.8%, Cc1ccccc1CNC(=O)CN1C(=O)CSc2ccc(S(=O)(=O)N(C)C)cc21 -10.8%, Cc1ccc(CSc2oc(-c3cccs3)nc2S(=O)(=O)c2ccccc2)cc1 -13.4%, COc1ccccc1N1CCN(c2ncc3c(n2)CCN(Cc2ccccc2F)C3)CC1 -10.9%, COc1ccc(CCNC(=O)Cc2c(C)c3c(cc(C)c4c(C)c(C)oc43)oc2=O)cc1 0.593%, C#C[C@]1(O)CC[C@H]2[C@@H]3[C@H](C)CC4=C(CCC(=O)C4)[C@H]3CC[C@@]21C 0.185%, CCOC(=O)N1CCc2c(sc3c2c(=O)n(Cc2ccccc2)c(=O)n3Cc2ccccc2Cl)C1 -8.23%, Cc1ccc2ncc(C(=O)N3CCN(c4ccccc4F)CC3)c(=O)n2c1 -11.9%, COc1cccc(NC(=O)C2CCN(c3nnc(C)c4c(C)n(-c5ccccc5)nc34)CC2)c1 -27.7%, CCc1ccc(OCC(=O)N(Cc2ccc(C)o2)C2CCS(=O)(=O)C2)cc1 (configuration not stated) -5.49%, Cc1c(NC(=O)c2cc(=O)c3ccccc3o2)c(=O)n(-c2ccccc2)n1C -6.36%, Cc1coc2c(C)c3oc(=O)c(CC(=O)NCCc4ccc(Cl)cc4)c(C)c3cc12 -7.58%, C=CCc1c(C)nc2nc(SCC(=O)Nc3ccc(C)c(C)c3)nn2c1C -10.8%, O=C(COc1ccccc1F)Nc1nnc(SCc2cc(=O)c3ccccc3[nH]2)s1 -21.6%, Cc1cccc(CSc2nc(-c3cccs3)ccc2C#N)c1 -29.5%, OC[C@@H](O)[C@@H](O)[C@H](O)[C@@H](O)CO -11.9%, COc1cccc(N2CCN(C(=O)c3cccn3-c3nnc(N4CCCC4)s3)CC2)c1 -16.5%, O=C(O)COc1nn(Cc2ccccc2)c2ccccc12 -4.88%, COc1ccc(CCN2C(=O)c3oc4cc(C)cc(C)c4c(=O)c3C2c2ccccc2F)cc1OC (configuration not stated) -13.2%, COc1ccc(S(=O)(=O)Nc2ccc(-c3cn4ccsc4n3)cc2)cc1C -10%, COc1cccc(-c2nnc(SCC(=O)NC3CCCCC3)o2)c1 -18.9%, Cc1ccc(NC(=O)c2ccc(CN3C(=O)CCn4nc(C)cc43)cc2)c(Cl)c1 -7.55%
